Results on 47 compounds are retold here after patent US20250214977A1, “STAT6 INHIBITORS AND USES THEREOF” (Kymera Therapeutics, Inc., priority 2024, published 2025).

Some results are limits rather than exact numbers.

The target of this experiment is T1, biotinylated truncated STAT6 (123-632)-avi (Homo sapiens, UniProt P42226).
T1 sequence (P42226 123-632 limits assumed): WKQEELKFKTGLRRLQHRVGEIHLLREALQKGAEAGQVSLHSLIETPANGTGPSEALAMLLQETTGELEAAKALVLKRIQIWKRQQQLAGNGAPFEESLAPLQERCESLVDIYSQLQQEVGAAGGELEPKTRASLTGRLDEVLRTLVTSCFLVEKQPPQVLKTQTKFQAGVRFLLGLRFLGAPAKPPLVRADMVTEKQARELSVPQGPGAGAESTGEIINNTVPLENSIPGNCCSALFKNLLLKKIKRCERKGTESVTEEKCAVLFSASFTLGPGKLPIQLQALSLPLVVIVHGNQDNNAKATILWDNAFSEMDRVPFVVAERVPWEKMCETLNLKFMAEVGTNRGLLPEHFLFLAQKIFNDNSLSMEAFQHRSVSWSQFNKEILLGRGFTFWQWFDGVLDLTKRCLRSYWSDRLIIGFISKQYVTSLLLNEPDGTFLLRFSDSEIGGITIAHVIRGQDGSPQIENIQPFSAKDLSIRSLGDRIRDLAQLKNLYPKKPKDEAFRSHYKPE
Kind of experiment: Homogenous Time-Resolved Fluorescence (HTRF) binding assay. The conditions noted are these: 0.15 nM biotinylated truncated STAT6 (123-632)-avi, 20 nM fluorescein-labeled probe, 30 minutes at room temperature.

For `COc1cc(F)cnc1N1CCN(C(=O)c2cc3c(-c4cccc(CO)c4C)cc(C4=CCCN(C(=O)CCn5ccnn5)C4)c(F)c3[nH]2)CC1` [Example I-616], the IC50 was greater than 100000 nM.

`CCOc1ccc(-c2cc(C3=CCCN(C(=O)CCn4ccnn4)C3)c(F)c3[nH]c(C(=O)N4CCN(c5ncc(F)cc5OC)CC4)cc23)c(OCC)c1` [Example I-618]: the IC50 was less than 100 nM.

`CCc1ccncc1-c1cc(C2=CCCN(C(C)=O)C2)c(F)c2[nH]c(C(=O)N3CCN(c4ncccc4OC)CC3)cc12` [Example I-619] registered an IC50 of 100 to 1000 nM.

`COc1cc(F)cnc1N1CCN(C(=O)c2cc3c(-c4cccc(-n5nc(C)cc5C)c4)cc(C4=CCCN(C(=O)CCn5ccnn5)C4)c(F)c3[nH]2)CC1` [Example I-620]: the IC50 is less than 100 nM.

`COc1cc(F)cnc1N1CCN(C(=O)c2cc3c(-c4cnn(C)c4-c4ccccc4)cc(C4=CCCN(C(=O)CCn5ccnn5)C4)c(F)c3[nH]2)CC1` [Example I-621] displayed a half-maximal inhibitory concentration (IC50) of less than 100 nM.

`COc1cc(F)cnc1N1CCN(C(=O)c2cc3c(-c4ccc5c(c4)c(C4CC4)nn5C)cc(C4=CCCN(C(=O)CCn5ccnn5)C4)c(F)c3[nH]2)CC1` [Example I-622] showed an IC50 of less than 100 nM.

Take `COc1cc(F)cnc1N1CCN(C(=O)c2cc3c(-c4ccc5c(C)nn(C)c5c4)cc(C4=CCCN(C(=O)CCn5ccnn5)C4)c(F)c3[nH]2)CC1` [Example I-623]: the IC50 is less than 100 nM.

The compound `COc1cc(F)cnc1N1CCN(C(=O)c2cc3c(-c4ccc5nn(C)cc5c4)cc(C4=CCCN(C(=O)CCn5ccnn5)C4)c(F)c3[nH]2)CC1` [Example I-624] returned an IC50 of less than 100 nM.

In turn, `COc1cc(F)cnc1N1CCN(C(=O)c2cc3c(-c4cnn(-c5ccccc5)c4C)cc(C4=CCCN(C(=O)CCn5ccnn5)C4)c(F)c3[nH]2)CC1` [Example I-625] displayed an IC50 of less than 100 nM.

Regarding `COc1cc(F)cnc1N1CCN(C(=O)c2cc3c(-c4cccc(-c5ccncc5)c4)cc(C4=CCCN(C(=O)CCn5ccnn5)C4)c(F)c3[nH]2)CC1` [Example I-626], the IC50 is less than 100 nM.

`COc1cc(F)cnc1N1CCN(C(=O)c2cc3c(-c4cccnc4C4CC4)cc(C4=CCCN(C(=O)CCn5ccnn5)C4)c(F)c3[nH]2)CC1` [Example I-628] showed an IC50 of less than 100 nM.

Compound `COc1cc(F)cnc1N1CCN(C(=O)c2cc3c(-c4cc(C)nc5ccccc45)cc(C4=CCCN(C(=O)CCn5ccnn5)C4)c(F)c3[nH]2)CC1` [Example I-630] showed an IC50 of less than 100 nM.

As for `COc1cc(F)cnc1N1CCN(C(=O)c2cc3c(-c4cc(C)nc(C)c4)cc(C4=CCCN(C(=O)CCn5ccnn5)C4)c(F)c3[nH]2)CC1` [Example I-632], the IC50 is less than 100 nM.

For the compound `COc1cc(F)cnc1N1CCN(C(=O)c2cc3c(-c4cc(C)cc5cccnc45)cc(C4=CCCN(C(=O)CCn5ccnn5)C4)c(F)c3[nH]2)CC1` [Example I-633], the IC50 is less than 100 nM.

Compound `CC#Cc1cc(-c2cc(C3=CCCN(C(=O)CCn4ccnn4)C3)c(F)c3[nH]c(C(=O)N4CCN(c5ncc(F)cc5OC)CC4)cc23)ccn1` [Example I-634] had a concentration for half-maximal inhibition (IC50) of less than 100 nM.

Take `COc1cc(F)cnc1N1CCN(C(=O)c2cc3c(-c4ccc(C)c5ncccc45)cc(C4=CCCN(C(=O)CCn5ccnn5)C4)c(F)c3[nH]2)CC1` [Example I-635]: the IC50 was less than 100 nM.

Regarding `COc1cc(F)cnc1N1CCN(C(=O)c2cc3c(-c4cncc(C5CC5)c4)cc(C4=CCCN(C(=O)CCn5ccnn5)C4)c(F)c3[nH]2)CC1` [Example I-637], the IC50 was less than 100 nM.

Turning to `COc1cc(F)cnc1N1CCN(C(=O)c2cc3c(-c4cccc(OC(C)C)c4)cc(C4=CCCN(C(=O)CCn5ccnn5)C4)c(F)c3[nH]2)CC1` [Example I-638], the IC50 was less than 100 nM.

Consider `COc1cc(F)cnc1N1CCN(C(=O)c2cc3c(C4=CCOC4)cc(C4=CCCN(C(=O)CCn5ccnn5)C4)c(F)c3[nH]2)CC1` [Example I-639], for which the IC50 is less than 100 nM.

For the compound `CCOc1cc(-c2cc(C3=CCCN(C(=O)CCn4ccnn4)C3)c(F)c3[nH]c(C(=O)N4CCN(c5ncc(F)cc5OC)CC4)cc23)cc(F)c1F` [Example I-642], the IC50 fell in the range of 100 to 1000 nM.

The compound `CCOc1c(F)cccc1-c1cc(C2=CCCN(C(=O)CCn3ccnn3)C2)c(F)c2[nH]c(C(=O)N3CCN(c4ncc(F)cc4OC)CC3)cc12` [Example I-643] registered an IC50 of less than 100 nM.

`COc1cc(F)cnc1N1CCN(C(=O)c2cc3c(C=C4CCOCC4)cc(C4=CCCN(C(=O)CCn5ccnn5)C4)c(F)c3[nH]2)CC1` [Example I-644] returned an IC50 of less than 100 nM.

Regarding `COc1cc(F)cnc1N1CCN(C(=O)c2cc3c(-c4ccccc4C4CC4)cc(C4=CCCN(C(=O)CCn5ccnn5)C4)c(F)c3[nH]2)CC1` [Example I-645], the IC50 is less than 100 nM.

With `COc1cc(F)cnc1N1CCN(C(=O)c2cc3c(-c4cc(C)ncc4C)cc(C4=CCCN(C(=O)CCn5ccnn5)C4)c(F)c3[nH]2)CC1` [Example I-646], the half-maximal inhibitory concentration (IC50) was less than 100 nM.

Compound `COc1cc(F)cnc1N1CCN(C(=O)c2cc3c(-c4cncc(-c5ccccc5)c4)cc(C4=CCCN(C(=O)CCn5ccnn5)C4)c(F)c3[nH]2)CC1` [Example I-647] yielded a 50% inhibitory concentration (IC50) of less than 100 nM.

As for `COc1cc(F)cnc1N1CCN(C(=O)c2cc3c(-c4ccc(C)c(C#N)c4)cc(C4=CCCN(C(=O)CCn5ccnn5)C4)c(F)c3[nH]2)CC1` [Example I-648], the IC50 is less than 100 nM.

For `COc1cc(F)cnc1N1CCN(C(=O)c2cc3c(-c4cccc(C5(C#N)CC5)c4)cc(C4=CCCN(C(=O)CCn5ccnn5)C4)c(F)c3[nH]2)CC1` [Example I-649], the IC50 is less than 100 nM.

Compound `COc1cc(F)cnc1N1CCN(C(=O)c2cc3c(-c4cc(C5(C#N)CC5)ccc4F)cc(C4=CCCN(C(=O)CCn5ccnn5)C4)c(F)c3[nH]2)CC1` [Example I-650] displayed an IC50 of less than 100 nM.

On to `COc1cc(F)cnc1N1CCN(C(=O)c2cc3c(-c4cncc(OC(F)F)c4)cc(C4=CCCN(C(=O)CCn5ccnn5)C4)c(F)c3[nH]2)CC1` [Example I-651], for which the IC50 is less than 100 nM.

On to `CCCOc1ncccc1-c1cc(C2=CCCN(C(=O)CCn3ccnn3)C2)c(F)c2[nH]c(C(=O)N3CCN(c4ncc(F)cc4OC)CC3)cc12` [Example I-652], for which the half-maximal inhibitory concentration (IC50) was less than 100 nM.

Compound `COc1cc(F)cnc1N1CCN(C(=O)c2cc3c(-c4ccnc(OC(F)F)c4)cc(C4=CCCN(C(=O)CCn5ccnn5)C4)c(F)c3[nH]2)CC1` [Example I-653] returned an IC50 of less than 100 nM.

`CCCOc1ncc(C)cc1-c1cc(C2=CCCN(C(=O)CCn3ccnn3)C2)c(F)c2[nH]c(C(=O)N3CCN(c4ncc(F)cc4OC)CC3)cc12` [Example I-654] had an IC50 of less than 100 nM.

On to `COc1cc(F)cnc1N1CCN(C(=O)c2cc3c(-c4cncc(OC(C)C)c4)cc(C4=CCCN(C(=O)CCn5ccnn5)C4)c(F)c3[nH]2)CC1` [Example I-655], for which the IC50 is less than 100 nM.

In the case of `COc1cc(F)cnc1N1CCN(C(=O)c2cc3c(-c4ccnc(F)c4OC)cc(C4=CCCN(C(=O)CCn5ccnn5)C4)c(F)c3[nH]2)CC1` [Example I-656], the IC50 is less than 100 nM.

`COc1cc(F)cnc1N1CCN(C(=O)c2cc3c(-c4cccc5c4CC[C@H]5O)cc(C4=CCCN(C(=O)CCn5ccnn5)C4)c(F)c3[nH]2)CC1` [Example I-658] displayed an IC50 of less than 100 nM.

Regarding `COc1cc(F)cnc1N1CCN(C(=O)c2cc3c(-c4cc(O)cc5ccccc45)cc(C4=CCCN(C(=O)CCn5ccnn5)C4)c(F)c3[nH]2)CC1` [Example I-659], the IC50 is less than 100 nM.

Regarding `COCOc1ccc(F)cc1-c1cc(C2=CCCN(C(=O)CCn3ccnn3)C2)c(F)c2[nH]c(C(=O)N3CCN(c4ncc(F)cc4OC)CC3)cc12` [Example I-660], the IC50 was less than 100 nM.

For the compound `CCOc1ccc(-c2cc(C3=CCCN(C(=O)CCn4ccnn4)C3)c(F)c3[nH]c(C(=O)N4CCN(c5ncc(F)cc5OC)CC4)cc23)c(OC)c1` [Example I-661], the IC50 is less than 100 nM.

`CCc1ccccc1-c1cc(C2=CCCN(C(=O)CCn3cccn3)C2)c(F)c2[nH]c(C(=O)N3CCN(c4ncc(F)cc4OC)CC3)cc12` [Example I-662]: the IC50 is less than 100 nM.

Turning to `COc1cnccc1-c1cc(C2=CCCN(C(=O)CCn3cccn3)C2)c(F)c2[nH]c(C(=O)N3CCN(c4ncc(F)cc4OC)CC3)cc12` [Example I-663], the IC50 was less than 100 nM.

In turn, `COc1ccncc1-c1cc(C2=CCCN(C(=O)CCn3cccn3)C2)c(F)c2[nH]c(C(=O)N3CCN(c4ncc(F)cc4OC)CC3)cc12` [Example I-664] had an IC50 of less than 100 nM.

Compound `CCc1ccccc1-c1cc(C2=CCCN(C(=O)CCn3ccnn3)C2)c(F)c2[nH]c(C(=O)N3CCN(c4ncc(F)cc4OC)CC3)cc12` [Example I-665] came in with an IC50 of less than 100 nM.

On to `COc1cnccc1-c1cc(C2=CCCN(C(=O)CCn3ccnn3)C2)c(F)c2[nH]c(C(=O)N3CCN(c4ncc(F)cc4OC)CC3)cc12` [Example I-666], for which the IC50 was greater than 100000 nM.

Regarding `COc1cc(C)ncc1-c1cc(C2=CCCN(C(=O)CCn3ccnn3)C2)c(F)c2[nH]c(C(=O)N3CCN(c4ncc(F)cc4OC)CC3)cc12` [Example I-667], the IC50 is greater than 100000 nM.

In turn, `COc1cc(F)cnc1N1CCN(C(=O)c2cc3c(-c4cnccc4C(C)C)cc(C4=CCCN(C(=O)CCn5ccnn5)C4)c(F)c3[nH]2)CC1` [Example I-668] displayed an IC50 greater than 100000 nM.

As for `COc1cc(F)cnc1N1CCN(C(=O)c2cc3c(-c4cnccc4C(C)C)cc(C4=CCCN(C(=O)CCn5cccn5)C4)c(F)c3[nH]2)CC1` [Example I-669], the half-maximal inhibitory concentration (IC50) is less than 100 nM.

In turn, `COCOc1cc(F)ccc1-c1cc(C2=CCCN(C(=O)CCn3ccnn3)C2)c(F)c2[nH]c(C(=O)N3CCN(c4ncc(F)cc4OC)CC3)cc12` [Example I-670] returned an IC50 of less than 100 nM.
